# Assay results as given in the supplement of paper PMC8728848.
# The other results are listed elsewhere or left out.
# Experiments:
# Experiment in all cases: glycan array binding signal (z-score within array); higher = stronger binding
# Details in all cases: glycan notation: IUPAC condensed, linker removed
# [1] = molecular target: GlcNAc(b1-3)[GlcNAc(b1-6)]Gal(b1-4)GlcNAc
# How it was run: (§1)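 Negative Z-scores can be read as non-binding. The Z-score is calculated within each array and then averaged across arrays of one protein sequence at different concentrations or buffers and across linkers. Arrays, 3228 in all, were curated from the Consortium for Functional Glycomics database and kept only where the protein sequence was available.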
# [2] = molecular target: GlcNAc(b1-3)[GlcNAc(b1-6)]GalNAc
# How it was run: as §1
# [3] = molecular target: GlcNAc(b1-3)[GlcNAc(b1-6)]GlcNAc(b1-4)GlcNAc
# How it was run: as §1
# [4] = molecular target: GlcNAc(b1-4)Gal(b1-4)GlcNAc
# How it was run: as §1
# [5] = molecular target: GlcNAc(b1-4)GlcNAc
# How it was run: as §1
# [6] = molecular target: GlcNAc(b1-4)GlcNAc(b1-4)GlcNAc
# How it was run: as §1
# [7] = molecular target: GlcNAc(b1-4)GlcNAc(b1-4)GlcNAc(b1-4)GlcNAc(b1-4)GlcNAc
# How it was run: as §1
# [8] = molecular target: GlcNAc(b1-4)GlcNAc(b1-4)GlcNAc(b1-4)GlcNAc(b1-4)GlcNAc(b1-4)GlcNAc
# How it was run: as §1
# [9] = molecular target: GlcNAc(b1-4)[GlcNAc(b1-6)]GalNAc
# How it was run: as §1
# [10] = molecular target: GlcNAc(b1-6)Gal(b1-4)GlcNAc
# How it was run: as §1
# [11] = molecular target: GlcNAc(b1-6)GalNAc
# How it was run: as §1
# [12] = molecular target: GlcNAc3Prop(b1-4)GlcNAc
# How it was run: as §1
# [13] = molecular target: GlcNAc6S(b1-3)Gal(b1-4)GlcNAc
# How it was run: as §1
# [14] = molecular target: Kdn(a2-3)Gal(b1-3)GalNAc
# How it was run: as §1
# [15] = molecular target: Kdn(a2-3)Gal(b1-3)GlcNAc
# How it was run: as §1
# [16] = molecular target: Kdn(a2-3)Gal(b1-4)Glc
# How it was run: as §1
# [17] = molecular target: Kdn(a2-3)Gal(b1-4)GlcNAc
# How it was run: as §1
# [18] = molecular target: Kdn(a2-3)Gal(b1-4)[Fuc(a1-3)]GlcNAc
# How it was run: as §1
# [19] = molecular target: Kdn(a2-6)Gal(b1-4)GlcNAc
# How it was run: as §1
# [20] = molecular target: Man(a1-2)Man(a1-2)Man(a1-3)Man
# How it was run: as §1
# [21] = molecular target: Man(a1-2)Man(a1-2)Man(a1-6)[Man(a1-3)]Man
# How it was run: as §1
# [22] = molecular target: Man(a1-2)Man(a1-3)Man
# How it was run: as §1
# [23] = molecular target: Man(a1-2)Man(a1-3)[Man(a1-2)Man(a1-6)]Man
# How it was run: as §1
# [24] = molecular target: Man(a1-2)Man(a1-3)[Man(a1-2)Man(a1-6)]Man(a1-6)[Man(a1-2)Man(a1-2)Man(a1-3)]Man
# How it was run: as §1
# [25] = molecular target: Man(a1-2)Man(a1-3)[Man(a1-2)Man(a1-6)]Man(a1-6)[Man(a1-2)Man(a1-2)Man(a1-3)]Man(b1-4)GlcNAc(b1-4)GlcNAc
# How it was run: as §1
# [26] = molecular target: Man(a1-2)Man(a1-3)[Man(a1-2)Man(a1-6)]Man(a1-6)[Man(a1-3)[Man(a1-6)]Man(a1-6)]Man(b1-4)GlcNAc(b1-4)GlcNAc
# How it was run: as §1
# [27] = molecular target: Man(a1-2)Man(a1-3)[Man(a1-6)]Man(a1-6)[Man(a1-2)Man(a1-3)]Man(b1-4)GlcNAc(b1-4)GlcNAc
# How it was run: as §1
# [28] = molecular target: Man(a1-2)Man(a1-6)[Man(a1-3)]Man(a1-6)[Man(a1-2)Man(a1-2)Man(a1-3)]Man
# How it was run: as §1
# [29] = molecular target: Man(a1-2)Man(a1-6)[Man(a1-3)]Man(a1-6)[Man(a1-2)Man(a1-2)Man(a1-3)]Man(b1-4)GlcNAc(b1-4)GlcNAc
# How it was run: as §1
# [30] = molecular target: Man(a1-3)[Man(a1-6)]Man
# How it was run: as §1
# [31] = molecular target: Man(a1-3)[Man(a1-6)]Man(a1-6)[Man(a1-2)Man(a1-3)]Man(b1-4)GlcNAc(b1-4)GlcNAc
# How it was run: as §1
# [32] = molecular target: Man(a1-3)[Man(a1-6)]Man(a1-6)[Man(a1-3)]Man
# How it was run: as §1
# [33] = molecular target: Man(a1-3)[Man(a1-6)]Man(a1-6)[Man(a1-3)]Man(b1-4)GlcNAc(b1-4)GlcNAc
# How it was run: as §1
# [34] = molecular target: Man(a1-3)[Man(a1-6)]Man(b1-4)GlcNAc(b1-4)GlcNAc
# How it was run: as §1
# [35] = molecular target: Man(a1-3)[Man(a1-6)]Man(b1-4)GlcNAc(b1-4)[Fuc(a1-6)]GlcNAc
# How it was run: as §1
# [36] = molecular target: Man(a1-6)Man
# How it was run: as §1
# [37] = molecular target: Man(b1-4)GlcNAc
# How it was run: as §1
# [38] = molecular target: MurNAc(b1-4)GlcNAc
# How it was run: as §1
# [39] = molecular target: Neu5Ac(a2-3)Gal
# How it was run: as §1
# [40] = molecular target: Neu5Ac(a2-3)Gal(b1-3)GalNAc
# How it was run: as §1
# [41] = molecular target: Neu5Ac(a2-3)Gal(b1-3)GalNAc(b1-3)Gal(a1-4)Gal(b1-4)Glc
# How it was run: as §1
# [42] = molecular target: Neu5Ac(a2-3)Gal(b1-3)GalNAc(b1-3)Gal(b1-4)GlcNAc
# How it was run: as §1
# [43] = molecular target: Neu5Ac(a2-3)Gal(b1-3)GalNAc(b1-4)Gal(b1-4)Glc
# How it was run: as §1
# [44] = molecular target: Neu5Ac(a2-3)Gal(b1-3)GalNAc(b1-4)[Neu5Ac(a2-3)]Gal(b1-4)Glc
# How it was run: as §1
# [45] = molecular target: Neu5Ac(a2-3)Gal(b1-3)GalNAc(b1-4)[Neu5Ac(a2-8)Neu5Ac(a2-3)]Gal(b1-4)Glc
# How it was run: as §1
binder,measurement,setting,value
"GNA (Galanthus nivalis), P30617 (protein) MAKASLLILAAIFLGVITPSCLSDNILYSGETLSTGEFLNYGSFVFIMQEDCNLVLYDVDKPIWATNTGGLSRSCFLSMQTDGNLVVYNPSNKPIWASNTGGQNGNYVCILQKDRNVVIYGTDRWATGTHTGLVGIPASPPSEKYPTAGKIKLVTAK",glycan array binding signal (z-score),[1],-0.231
same,glycan array binding signal (z-score),[2],-0.199
same,glycan array binding signal (z-score),[3],-0.208
same,glycan array binding signal (z-score),[4],-0.245
same,glycan array binding signal (z-score),[5],-0.229
same,glycan array binding signal (z-score),[6],-0.208
same,glycan array binding signal (z-score),[7],-0.212
same,glycan array binding signal (z-score),[8],-0.21
same,glycan array binding signal (z-score),[9],-0.286
same,glycan array binding signal (z-score),[10],-0.198
same,glycan array binding signal (z-score),[11],-0.176
same,glycan array binding signal (z-score),[12],-0.486
same,glycan array binding signal (z-score),[13],-0.198
same,glycan array binding signal (z-score),[14],-0.146
same,glycan array binding signal (z-score),[15],-0.112
same,glycan array binding signal (z-score),[16],-0.23
same,glycan array binding signal (z-score),[17],-0.099
same,glycan array binding signal (z-score),[18],-0.137
same,glycan array binding signal (z-score),[19],-0.184
same,glycan array binding signal (z-score),[20],0.719
same,glycan array binding signal (z-score),[21],0.639
same,glycan array binding signal (z-score),[22],-0.017
same,glycan array binding signal (z-score),[23],0.646
same,glycan array binding signal (z-score),[24],0.512
same,glycan array binding signal (z-score),[25],0.303
same,glycan array binding signal (z-score),[26],6.07
same,glycan array binding signal (z-score),[27],2.23
same,glycan array binding signal (z-score),[28],2.03
same,glycan array binding signal (z-score),[29],3.2
same,glycan array binding signal (z-score),[30],4.73
same,glycan array binding signal (z-score),[31],5.86
same,glycan array binding signal (z-score),[32],3.04
same,glycan array binding signal (z-score),[33],5.35
same,glycan array binding signal (z-score),[34],9.48
same,glycan array binding signal (z-score),[35],6.97
same,glycan array binding signal (z-score),[36],-0.24
same,glycan array binding signal (z-score),[37],-0.102
same,glycan array binding signal (z-score),[38],-0.174
same,glycan array binding signal (z-score),[39],-0.093
same,glycan array binding signal (z-score),[40],-0.215
same,glycan array binding signal (z-score),[41],-0.077
same,glycan array binding signal (z-score),[42],-0.195
same,glycan array binding signal (z-score),[43],-0.133
same,glycan array binding signal (z-score),[44],-0.14
same,glycan array binding signal (z-score),[45],-0.155
